Survival data for 23 compounds are collected here from PubChem BioAssay AID463173 (ICCB-Longwood Screening Facility, Harvard Medical School, 2010).

Hit rate of the full screen: of about 52,000 compounds, about 1,700 (3.3%) were called active. Rule as the data show it: active = survival mostly below about 52% (no sharp cut-off); inactive = mostly above about 56%. The list shows a part of the results.

The test system of the experiment is Wild type. Briefly: growth inhibition of S. aureus wild type versus tarO mutant, primary screen, teichoic acid synthesis inhibitors, RN4220, OD600 (AID 463173). The note with it: S. aureus RN4220 wild type/DeltatarO growth, OD600, 18 h, stronger effect = lower value, screened at 18.75 µg/mL (by protocol).
As for `CCC1CCCCN1S(=O)(=O)c1ccc(S(=O)(=O)n2cnc3cc(C)c(C)cc32)cc1` (stereo not drawn), the survival is inactive: 101%.
Turning to `CC(OC(=O)C1=Cc2ccccc2OC1)C(=O)NCC1CCCO1` (stereo not drawn), the survival was inactive: 108%.
For the compound `CCc1nc2ccccc2n2c(-c3ccc(C)cc3)c3c(=O)n(C)c(=O)n(C)c3c12`, the survival was inactive: 75%.
The value for `Fc1ccc(Nc2nc(SCc3ccccc3Cl)nc3ccccc23)cc1` was inactive: 45%.
The value for `Cc1cc(C)cc(NC(=O)C2CCCN(S(=O)(=O)c3cccc4nsnc34)C2)c1` (stereo not drawn) was inactive: 124%; that for `Cc1cccc(N2CCN(C(c3ccccc3)c3nnc(-c4ccccc4F)o3)CC2)c1C` (stereo not drawn) was inactive: 43%; that for `CCOC(=O)c1c(C)[nH]c(C)c1S(=O)(=O)NCC(=O)Nc1ccc(C)cc1C` was inactive: 64%.
Regarding `COc1ccc(CSc2nc3ccncc3n2CC(=O)Nc2cc(C)cc(C)c2)cc1`, the survival is inactive: 81%.
The value for `Cc1csc2nc(COC(=O)CNC(=O)c3ccc(F)cc3)cc(=O)n12` was inactive: 74%.
The value for `NC(=O)C1CCN(C(=O)c2ccc3c(c2)N(Cc2cccc(Cl)c2)C(=O)c2ccccc2S3=O)CC1` (stereo not drawn) was inactive: 79%.
In the case of `CCOc1ccccc1NC(=O)C1CCC(CNS(=O)(=O)c2ccc3c(c2)CCCC(=O)N3)CC1` (stereo not drawn) it was inactive: 70%; in that of `Cc1ccc(C(=O)Nc2ccccc2C(=O)OCc2cc(=O)n3nc(C(C)C)sc3n2)cc1`, inactive: 80%.
Take `COc1ccc(CC(=O)NCCS(=O)(=O)N2CCN(c3ccccc3F)CC2)cc1OC`: the survival was inactive: 66%.
Turning to `Cc1ccc(Cl)cc1N1CCN(CCCNC(=O)Cn2ncc3c([nH]c4ccccc43)c2=O)CC1`, the survival was inactive: 99%.
In the case of `Cc1ccc(C)c(NC(=O)CN(C)S(=O)(=O)c2cccc3cccnc23)c1` it was inactive: 85%; in that of `Cc1ccc(C)c(NC(=O)CSc2nc(-c3ccccc3)c(C#N)c(=O)[nH]2)c1`, inactive: 113%.
Consider `O=C(CC1N=C2c3ccccc3N=C(SCc3ccc(F)cc3)N2C1=O)NC1CCCCC1` (stereo not drawn), for which the survival is inactive: 146%.
Take `Cc1cccc(NC(=O)Cn2c(=O)n(Cc3ccccc3)c(=O)c3sc4ccccc4c32)c1`: the survival was inactive: 133%.
In the case of `CCOc1ccc(N(C(=O)c2ccc(Cl)cc2)S(=O)(=O)c2ccc3c(c2)n(C)c(=O)n3C)cc1` it was inactive: 81%; in that of `CCOc1ccc(CCNC(=O)c2cccc(Nc3nc4ccccc4nc3-n3nc(C)cc3C)c2)cc1OCC`, inactive: 94%.
In the case of `Cc1ccc(CNc2nc3ccc(Cl)cc3n3cnnc23)cc1` it was inactive: 93%.
In the case of `COC(=O)c1ccccc1NC(=O)C1=CC(c2ccc3c(c2)OCO3)=NS(=O)(=O)N1C` it was inactive: 85%; in that of `COc1ccc(S(=O)(=O)c2c(Nc3c(C)cccc3C)sc(C(=O)c3ccc(F)cc3)c2N)cc1`, inactive: 120%.
